# Laboratory results reported in PubChem BioAssay AID2101 (National Center for Advancing Translational Sciences (NCATS), 2009).
# The whole screen tested about 330,000 compounds, of which about 300 (0.091%) were called active. This list was built around the results that the source calls inconclusive (neither active nor inactive); the mix of calls is not that of the screen. Calls come from the whole dose curve; as a rule, active = well fitted inhibition curve with a large enough effect; inconclusive = small, poorly fitted or top-dose-only effect, or effect the other way, or another doubt; inactive = no such curve, though single readings can be large or run the other way. Potencies of inconclusive entries are left out as doubtful fits.
# Target: Lysosomal acid glucosylceramidase (Homo sapiens) (UniProt P04062)
# Test: qHTS Assay for Inhibitors and Activators of N370S glucocerebrosidase as a Potential Chaperone Treatment of Gaucher Disease;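 for activity change, negative = inhibition: 0% = full enzyme activity and -100% = no enzyme basal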
# Details: N370S GC spleen homogenate, 4MU-glucoside fluorescence; activity change, negative = inhibition: at 59.4 µM (top of the series) unless noted
# Potency is the fitted concentration of half-maximal effect.
Structure (SMILES),"activity change, negative = inhibition",Potency
O=c1oc(-c2ccccc2)cc(Cl)c1Cl,inactive: 6.76%,–
O=[N+]([O-])c1ccc(N/N=C/c2cccc(O)c2O)c(S(=O)(=O)N2CCOCC2)c1,–,"inconclusive [inhibitor, single point]"
Cc1ccc(NC(=O)CCCN2C(=O)/C(=C/C=C/c3ccccc3)SC2=S)cc1,inactive: 1.82%,–
Cc1ccc(CN(C(=O)N2CCN(C)CC2)S(=O)(=O)c2ccc(C)cc2)cc1,inactive: -4.06%,–
O=S(=O)(c1ccccc1)c1ccc(N2CCCCCC2)cc1,–,"inconclusive [activator, partial curve]"
Cc1nc2c(-c3ccccc3)c(C)[nH]n2c(=O)c1Cl,–,"inconclusive [inhibitor, single point]"
Cc1ccc(N(CC(=O)Nc2cc(Cl)ccc2Oc2ccccc2)S(C)(=O)=O)cc1C,–,"inconclusive [activator, partial curve]"
CCC(C)(C)c1ccc(OCCCC[n+]2ccc(C)cc2)c(C(C)(C)CC)c1,–,"inconclusive [inhibitor, single point]"
CCOC(=O)c1c(NC(=O)CSc2ncnc3[nH]ncc23)sc2c1CCC(C)C2 (stereo not drawn),–,"inconclusive [activator, partial curve]"
O=C(CN1C(=O)CCS(=O)(=O)c2ccccc21)Nc1ccc(F)cc1,–,"inconclusive [activator, single point]"
CCOc1ccc(C(CC(=O)O)NS(=O)(=O)c2ccc(C)cc2)cc1OC (stereo not drawn),–,"inconclusive [inhibitor, full curve, poor fit]"
CN1CCCC1CCNc1ccc2c(=O)c3ccccc3oc2c1 (stereo not drawn),–,"inconclusive [activator, partial curve]"
COc1cc2c(c(OC)c1OC)-c1c(cc3c(c1OC)OCO3)CC(C)C(C)(O)C2OC(=O)c1ccccc1 (stereo not drawn),inactive: -4.27%,–
CC(/C=N/NC(=O)CSc1nc2ccccc2n1C)=C\c1ccco1,inactive: 3.2%,–
COc1cc(OC)c(NS(=O)(=O)c2cc3[nH]c(=O)c(=O)[nH]c3cc2C)cc1Cl,–,"inconclusive [inhibitor, single point]"
O=C1CC(c2cccc(F)c2)c2c(c3ccccc3[nH]c2=O)O1 (stereo not drawn),–,"inconclusive [activator, partial curve]"
N#CCCn1nc(-c2ccccc2)cc1Nc1ccccc1NC(=O)c1cccs1,–,"inconclusive [inhibitor, full curve, poor fit]"
Cc1c(NC(=O)CSc2n[nH]c(-c3ccccc3)n2)c(=O)n(-c2ccccc2)n1C,–,"inconclusive [activator, partial curve, poor fit]"
O=C(N/N=C/c1ccc(O)cc1)c1cc(C2CC2)[nH]n1,inactive: -7.19%,–
COc1ccc(-c2ccc(-c3noc(-c4ccc(OC)c(OC)c4)n3)c(OC)n2)cc1,inactive: 1.22%,–
Nc1nc(NCc2ccccc2)nc(-c2ccccc2)n1,–,"inconclusive [inhibitor, partial curve]"
Cc1ccc(-c2noc(C3CCCN(C(=O)c4ccc(F)cc4F)C3)n2)cc1 (stereo not drawn),–,"inconclusive [activator, partial curve]"

Structure (SMILES),"activity change, negative = inhibition",Potency
COC(=O)c1cc(OC)c(OC)cc1NC(=O)c1cc(-c2ccccc2)nc2ccccc12,–,"inconclusive [inhibitor, single point]"
C/C(=N/OC(=O)c1c(-c2c(F)cccc2Cl)noc1C)c1cnccn1,–,"inconclusive [inhibitor, single point]"
CCOc1ccc2c(C)nc(NC3=NC(C)(C)C=C(C)N3)nc2c1,–,"inconclusive [inhibitor, single point]"
C/C(=C\c1ccccc1)C(=O)Nc1ccc(Cl)cn1,inactive: 0.413%,–
CCC(C)(C)NC(=O)C(c1ccc(OC)cc1)N(C(=O)CCC(=O)Nc1cc(C)on1)c1cc(OC)ccc1OC (stereo not drawn),–,"inconclusive [inhibitor, partial curve]"
CCOc1ccccc1NC(=O)CSc1nc2ccccc2nc1N1CCCC1,–,"inconclusive [activator, partial curve]"
Cc1cc(Nc2ccccc2)n2nc(C)c(-c3ccccc3)c2n1,–,"inconclusive [activator, single point]"
Cc1ccc(CNC(=O)/C=C/c2cccs2)cc1,–,"inconclusive [inhibitor, single point]"
CC(=O)N1CCN(C(=O)CC2OC(=O)c3ccccc32)CC1 (stereo not drawn),inactive: -2.7%,–
COC(=O)c1c(NC(=O)C2CCCCC2C(=O)O)sc2c1CCCCC2 (stereo not drawn),–,"inconclusive [activator, single point]"
COc1cc(OC)c2c(c1C(CCN1CCCCC1)c1ccc(N(C)C)cc1)OC(=O)CC2c1ccc(N(C)C)cc1 (stereo not drawn),inactive: -10.2%,–
CSc1ccccc1N1CCN(CCCCCC(=O)NC2CCCc3ccccc32)CC1 (stereo not drawn),–,"inconclusive [inhibitor, partial curve]"
Cc1c(C)c2ccc(O)c(CN3CCCC3)c2oc1=O,–,"inconclusive [activator, partial curve]"
CCOC(=O)CSc1cccc2cccnc12,inactive: 8.82%,–
Cc1cccc(NC(=O)Cn2cnc3ccc(S(=O)(=O)N4CCC(C)CC4)cc3c2=O)n1,–,"inconclusive [activator, partial curve]"
O=C(NNC(=O)c1ccccc1Br)c1ccc2nc[nH]c2c1,–,"inconclusive [inhibitor, single point]"
Cc1ccc(-n2cc(-c3ccccc3)c3c(N4CCN(C)CC4)ncnc32)cc1,–,"inconclusive [inhibitor, single point]"
O=C(COc1ccc(Br)cc1CNC1CCCC1)Nc1ccccc1,–,"inconclusive [inhibitor, full curve, poor fit]"
COc1ccc(CNCc2c(F)cccc2F)cc1OC,inactive: -6.34%,–
CC1(C)CC(CCN(Cc2ccccc2)C(=O)c2ccco2)(c2ccccc2)CCO1 (stereo not drawn),–,"inconclusive [activator, single point]"
C[C@@](N)(Cc1ccc(O)c(O)c1)C(=O)O,–,inactive
